Assay results: PubChem BioAssay AID504339 (National Center for Advancing Translational Sciences (NCATS), 2011)
Screen size: about 390,000 compounds; about 17,000 (4.4%) were called active. The inconclusive results got no clear call from the source; some entries with a clear call stand among them for comparison. Calls follow the shape of the dose curve; as a rule, active = well fitted inhibition curve with a large enough effect; inconclusive = small, poorly fitted or top-dose-only effect; inactive = no such curve, though single readings can be large or run the other way. A potency beside an inconclusive call is a rough fit, not a confirmed value.

Biological target: Lysine-specific demethylase 4A (Homo sapiens) (UniProt O75164)
Assay: qHTS Assay for Inhibitors of JMJD2A-Tudor Domain; also: nearly all actives have a fitted effect of over 50% in size
Conditions: AlphaScreen JMJD2A-Tudor / H3K4me3 peptide binding; activity change, negative = inhibition: at 114 µM (top of the series)
% is scaled to controls: 0 for no effect and ±100 for the full control effect; potency is read from the fitted curve at half-maximal effect; tags tell the direction and shape of the fitted curve.

Chain of UniProt O75164 (O75164 whole entry, looked up, the tested form may be a part): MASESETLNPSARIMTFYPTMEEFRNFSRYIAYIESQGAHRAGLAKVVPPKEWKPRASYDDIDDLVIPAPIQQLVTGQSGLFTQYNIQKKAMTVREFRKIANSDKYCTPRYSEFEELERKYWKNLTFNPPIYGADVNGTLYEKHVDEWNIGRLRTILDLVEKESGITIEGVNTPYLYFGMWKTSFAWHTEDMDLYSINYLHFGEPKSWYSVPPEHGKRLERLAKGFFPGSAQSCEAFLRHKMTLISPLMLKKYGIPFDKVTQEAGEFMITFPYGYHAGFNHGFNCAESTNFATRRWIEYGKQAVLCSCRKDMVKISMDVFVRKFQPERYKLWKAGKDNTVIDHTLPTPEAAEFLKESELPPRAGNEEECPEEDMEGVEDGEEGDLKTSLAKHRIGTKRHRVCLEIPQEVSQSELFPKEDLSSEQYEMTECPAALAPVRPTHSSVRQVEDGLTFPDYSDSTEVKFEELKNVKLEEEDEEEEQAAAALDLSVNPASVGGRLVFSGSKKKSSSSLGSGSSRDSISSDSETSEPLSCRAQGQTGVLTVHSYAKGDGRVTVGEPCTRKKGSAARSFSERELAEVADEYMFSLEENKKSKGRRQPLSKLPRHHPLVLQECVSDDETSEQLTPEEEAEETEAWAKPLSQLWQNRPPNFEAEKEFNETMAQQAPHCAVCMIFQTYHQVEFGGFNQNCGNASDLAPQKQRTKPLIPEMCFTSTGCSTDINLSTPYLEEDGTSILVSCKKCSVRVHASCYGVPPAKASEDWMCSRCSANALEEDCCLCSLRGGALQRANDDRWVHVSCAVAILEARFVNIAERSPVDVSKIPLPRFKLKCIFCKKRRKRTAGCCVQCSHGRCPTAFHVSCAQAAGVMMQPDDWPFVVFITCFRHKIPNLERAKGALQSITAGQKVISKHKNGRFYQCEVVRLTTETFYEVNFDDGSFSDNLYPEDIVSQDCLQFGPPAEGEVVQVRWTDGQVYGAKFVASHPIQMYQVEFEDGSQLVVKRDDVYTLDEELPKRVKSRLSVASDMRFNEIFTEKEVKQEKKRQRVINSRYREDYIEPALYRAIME

Potency, inconclusive:
CC(C)N1CCC2(CC1)N=C(c1ccc3c(c1)OCO3)CC(c1cc(Cl)ccc1O)N2 (stereo not drawn) 79.4 µM [inhibitor, partial curve], CN(C)c1ccc(NC(=O)CSC2=Nc3ccccc3C3=NC(CC(=O)NCc4ccc5c(c4)OCO5)C(=O)N23)cc1 (stereo not drawn) 79.4 µM [inhibitor, partial curve], CCC1(C(=O)c2ccc(Cl)cc2)C2c3ccccc3OC(=O)C21C(=O)Nc1ccccc1 (stereo not drawn) 35.5 µM [inhibitor, partial curve], Oc1ccc(NCc2ccccc2OCc2ccccc2Cl)cc1 44.7 µM [inhibitor, full curve], COc1ccc(Cl)cc1NC(=O)c1c(NCc2cccs2)sc2c1CCCC2 22.4 µM [inhibitor, full curve], Cc1cccc(-n2ncc(C(=O)Nc3ccc4c(c3)OCO4)c2C2CCN(C(=O)OC(C)(C)C)CC2)c1 44.7 µM [inhibitor, partial curve], CCCC(O)(CCC)C(=O)NN1CCCCC1 15.8 µM [inhibitor, partial curve, poor fit], CCc1ccc(/C=C2\Oc3cc(OS(C)(=O)=O)ccc3C2=O)cc1 20 µM [inhibitor, full curve, poor fit], Cc1ccc(NC(=O)Cn2cnc3c(oc4ccccc43)c2=O)cc1 50.1 µM [inhibitor, partial curve, poor fit], O=c1[nH]c(CN2CCCC2)nc2sc3c(c12)CCC3 5.62 µM [inhibitor, full curve], CCn1cc([N+](=O)[O-])c(C(=O)N2N=C(c3ccc(OC)cc3OC)CC2c2ccccc2O)n1 (stereo not drawn) 44.7 µM [inhibitor, partial curve], COc1cc2c(cc1OC)CN(c1nc(-c3cccnc3)nc3ccccc13)CC2 44.7 µM [inhibitor, partial curve], CC(=O)Nc1cccc(-c2csc(Nc3cc(C)ccn3)n2)c1 56.2 µM [inhibitor, partial curve], COC(=O)c1ccc(NC(CC(C)C)C(=O)OC)c([N+](=O)[O-])c1 (stereo not drawn) 39.8 µM [inhibitor, full curve], CCN(CC)S(=O)(=O)c1ccc(NN=C2CCN(C(C)C)CC2)c([N+](=O)[O-])c1 56.2 µM [inhibitor, partial curve], O=C1CN(S(=O)(=O)c2cc(C(=O)O)ccc2Cl)c2ccccc2N1 39.8 µM [inhibitor, full curve, poor fit], O=C(O)c1cc2c([nH]c1=O)CCCC2 89.1 µM [inhibitor, single point], Cc1ccc(-c2nc3cnccn3c2Nc2ccccc2)o1 89.1 µM [inhibitor, single point], COc1ccc(CN2CCN(C(=O)c3ccco3)CC2)cc1OCc1ccccc1 0.794 µM [inhibitor, full curve, poor fit], COc1cc2c3nnc(-c4ccc(F)cc4)c-3cn(Cc3cccc(F)c3)c2cc1OC 79.4 µM [inhibitor, single point], COc1cccc2cc(C(=O)NCCc3c[nH]c4ccccc34)c(=O)oc12 25.1 µM [inhibitor, single point], COc1ccc(-c2cn(-c3ccc(C)cc3)c(S(=O)(=O)CC(=O)Nc3ccccc3)n2)cc1 50.1 µM [inhibitor, partial curve, poor fit], CN(C)c1cccc(C(=O)NNC(=S)NC2CC3CCC2C3)c1 (stereo not drawn) 79.4 µM [inhibitor, single point], O=C(Cc1ccc(Nc2nc3ccc(Br)cc3[nH]2)cc1)NCCc1cccs1 56.2 µM [inhibitor, partial curve], CCN(CCCNC(=O)c1cn(CC)c2ccc(S(=O)(=O)N(C)C)cc2c1=O)c1cccc(C)c1 50.1 µM [inhibitor, partial curve], Cc1ccc(-c2nc(C3CCN(S(C)(=O)=O)CC3)no2)cc1 89.1 µM [inhibitor, single point], Oc1ccccc1/C=N/NC(=S)NCCc1ccccc1 11.2 µM [inhibitor, full curve, poor fit], Cc1ccc(-c2cc(C(=O)Nc3nn[nH]n3)c3ccccc3n2)c(C)c1 22.4 µM [inhibitor, full curve, poor fit], COc1cc(-c2nnc(NC(=O)CCS(=O)(=O)c3ccccc3)o2)cc(OC)c1OC 56.2 µM [inhibitor, partial curve, poor fit]

Potency, active:
C=C(CN(C)C)C(=O)c1cc(OC)c(OC)cc1OC 79.4 µM, O=C(CSc1nnc(C2CC2)n1Cc1ccccc1)c1cc2ccccc2o1 56.2 µM, Oc1ccc(-c2n[nH]c(=S)n2Cc2ccco2)cc1 3.55 µM, CCOc1ccc(NC(=O)Cn2sc3nc(C)cc(C)c3c2=O)cc1 0.891 µM, Cc1cccc(OCCCSc2nc(-c3ccc(C(C)(C)C)cc3)nc3cc(=O)[nH]n23)c1C 25.1 µM, O=C(c1ccc(F)cc1)N1CCC(N2CCOCC2)CC1 7.94 µM, CCCc1cc(=S)n2c([nH]c3ccccc32)c1C#N 25.1 µM

Activity change, negative = inhibition, inactive:
O=Cc1ccccc1OCCOc1ccc([N+](=O)[O-])cc1 -29.2%, Cc1cccc(-n2c(=O)c3c(c4cc(C)ccc4n3C)n(CC(=O)Nc3ccccc3Cl)c2=O)c1 -15.5%, Cc1ccc2cccc(OCC(=O)Nc3cccc(S(=O)(=O)N4CCCC4)c3)c2n1 -17.4%, Cc1cccc(OCC(=O)OCC(=O)NCC2CCCO2)c1C (stereo not drawn) 1.29%, CCOC(=O)c1ccc(NC(=O)C2CC(=O)Nc3nc4ccccc4n32)cc1 (stereo not drawn) -10.3%, O=C(COC(=O)c1cccc2ccccc12)Nc1ncc(C(F)(F)F)cc1Cl -16.2%, CC(/C=N/NC(=O)Cn1nnc(N)n1)=C\c1ccc(C(C)C)cc1 -12.1%
